Laboratory results reported in the supplement of paper PMC3334620.
Over roughly 33,000 sequences, “E-score (-0.5 to 0.5)” has its median near -0.035; the highest 2% begin near 0.35. The list shows a part of the results.

molecular target: T1, Pdr3 (UniProt P33200); experiment: PBM E-score (8-mer binding enrichment) (E-score (-0.5 to 0.5)); higher = stronger / more preferred TF binding; most listed sequences are background and not binding sites; conditions: protein concentration: 200 nM; construct: GST-full length
T1 sequence: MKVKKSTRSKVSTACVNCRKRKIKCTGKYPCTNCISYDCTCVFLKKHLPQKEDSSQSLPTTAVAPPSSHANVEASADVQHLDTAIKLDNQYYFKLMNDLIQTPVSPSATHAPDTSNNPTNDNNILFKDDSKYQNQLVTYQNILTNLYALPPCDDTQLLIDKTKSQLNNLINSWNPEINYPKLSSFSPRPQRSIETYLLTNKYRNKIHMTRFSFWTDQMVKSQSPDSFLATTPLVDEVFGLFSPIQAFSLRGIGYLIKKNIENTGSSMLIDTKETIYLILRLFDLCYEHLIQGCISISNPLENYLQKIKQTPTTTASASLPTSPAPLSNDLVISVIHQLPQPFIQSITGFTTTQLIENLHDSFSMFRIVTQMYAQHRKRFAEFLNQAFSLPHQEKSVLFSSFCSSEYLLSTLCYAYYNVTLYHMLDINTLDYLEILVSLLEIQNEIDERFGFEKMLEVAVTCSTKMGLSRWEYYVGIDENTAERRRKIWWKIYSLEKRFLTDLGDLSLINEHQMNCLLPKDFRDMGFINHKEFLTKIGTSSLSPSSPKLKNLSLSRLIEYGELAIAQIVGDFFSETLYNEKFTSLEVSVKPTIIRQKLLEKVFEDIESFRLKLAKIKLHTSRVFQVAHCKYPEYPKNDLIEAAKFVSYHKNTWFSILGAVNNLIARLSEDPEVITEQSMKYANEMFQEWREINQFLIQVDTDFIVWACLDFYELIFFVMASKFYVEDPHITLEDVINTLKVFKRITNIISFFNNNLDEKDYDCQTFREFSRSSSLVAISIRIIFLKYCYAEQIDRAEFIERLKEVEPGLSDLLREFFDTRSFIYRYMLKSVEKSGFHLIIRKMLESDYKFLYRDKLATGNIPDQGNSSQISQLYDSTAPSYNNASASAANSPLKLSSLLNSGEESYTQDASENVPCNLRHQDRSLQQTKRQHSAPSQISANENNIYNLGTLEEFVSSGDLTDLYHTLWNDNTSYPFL
In short: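 Universal all-10-mer Agilent arrays, double-stranded by primer extension on fresh or once-stripped slides, were probed with about 100-200 nM GST-tagged yeast transcription factors made by PURExpress. Fluorescent anti-GST detected bound protein, and masliner normalised the scans. E-scores from the Universal PBM Analysis Suite were given to each ungapped eight-base word pooled with its reverse complement.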

Row | Sequence | PBM E-score
1 | CGGTGCTA | 0.0307
2 | CATCTAAC | -0.0779
3 | AGCCCGGA | 0.355
4 | CATATTGA | -0.18
5 | ATACATTC | -0.117
6 | CTAGGCAA | -0.138
7 | GACTTGCC | -0.124
8 | AATGACAG | -0.233
9 | ACAAGAGA | -0.0417
10 | CTCTGTCC | -0.0549
11 | CATCACGA | -0.274
12 | AATGACTC | -0.227
13 | GTAACTAA | 0.0981
14 | CGGGTGCA | 0.261
15 | CAGTGGGC | -0.0874
16 | CAATGGCC | -0.0441
17 | CCCCTGCA | -0.0201
18 | GACATCAC | -0.031
19 | ACACTAAA | 0.022
20 | AGCGCGTC | -0.0362
21 | GCAGCACC | -0.149
22 | CGTTAGAA | -0.138

Row | Sequence | PBM E-score
23 | ACTTCCTA | -0.0935
24 | ACGGACCC | 0.344
25 | AGAGACAC | -0.165
26 | ACGTAAAT | -0.105
27 | GCGAACCC | 0.0677
28 | AGAAAACT | -0.18
29 | CCATGTCC | 0.135
30 | CTGGGTCC | -0.128
31 | AATGTCGT | -0.138
32 | GGCCGCAA | 0.0933
33 | CGAACGTA | -0.194
34 | ACACTACC | -0.166
35 | TACCTCCA | -0.202
36 | AGTGCTAA | 0.0692
37 | GTCAGCCA | -0.167
38 | AGGGATTG | -0.0865
39 | GCGCGGTA | 0.28
40 | ACCCTATC | 0.036
41 | TCTGAGCA | -0.212
42 | GAGACGTA | -0.148
43 | ATTTGGAG | -0.112
44 | ACATTAAA | -0.084

Row | Sequence | PBM E-score
45 | CCTGTATA | -0.00321
46 | CGTACTCC | 0.0233
47 | CCTATTTC | -0.0468
48 | ACCGATCG | 0.123
49 | AGTCATAT | -0.0519
50 | CGACAGGA | 0.133
51 | AAGCTTAG | -0.116
52 | TGATTTAA | -0.0145
53 | AAAGTCTC | -0.186
54 | GCAATTGC | -0.0244
55 | ACAGCGAG | 0.0203
56 | CCACGTGA | -0.0844
57 | ATATAGGC | 0.0495
58 | ACCGAAAA | 0.00943
59 | CAACAAGC | -0.101
60 | AACCTTAA | 0.0253
61 | GGGTGCTA | -0.127
62 | GGGGCTAA | -0.156
63 | CCTCTCGA | -0.179
64 | AGCATCCG | 0.264
65 | ATGCTCTG | -0.11
66 | CAATGTTC | -0.00706

Row | Sequence | PBM E-score
67 | GGATTGTA | 0.0987
68 | ACGGCGCC | 0.243
69 | AACGTGGG | -0.153
70 | ATCGCACA | -0.207
71 | GCGCATGA | -0.107
72 | CATGCACA | -0.0998
73 | CAACCCTG | 0.0534
74 | ACCTACGT | -0.0544
75 | GGGACTTA | -0.0563
76 | CTACGAAG | -0.339
77 | GACGCATA | -0.00377
78 | ACTGACGG | 0.15
79 | ACTCCCTC | -0.236
80 | ACCATTGG | -0.121
81 | ATCACACA | -0.101
82 | CATCGACA | -0.0292
83 | AAGTGTGG | 0.0987
84 | AGGCCTGC | -0.0432
85 | AGTCCTCG | -0.184
86 | GGAGCGGA | 0.326
